Measured values as given in a collection of fitness landscapes (doi:10.1126/science.1257360).
This is one part of the list.

B1: PhoQ; a variant is named by its letters at X, in order, P23837 (parent)
chain: MKKLLRLFFPLSLRVRFLLATAAVVLVLSLAYGMVALIGYSVSFDKTTFRLLRGESNLFYTLAKWENNKLHVELPENIDKQSPTMTLIYDENGQLLWAQRDVPWLMKMIQPDWLKSNGFHEIEADVNDTSLLLSGDHSIQQQLQEVREDDDDAEMTHSVAVNVYPATSRMPKLTIVVVDTIPVELKSSYMVWSWFIYVLSANLLLVIPLLWVAAWWSLRPIEALAKEVRELEEHNRELLNPATTRELTSLVRNLNRLLKSERERYDKYRTTLTDLTHSLKTPLXXLQXXLRSLRSEKMSVSDAEPVMLEQISRISQQIGYYLHRASMRGGTLLSRELHPVAPLLDNLTSALNKVYQRKGVNISLDISPEISFVGEQNDFVEVMGNVLDNACKYCLEFVEISARQTDEHLYIVVEDDGPGIPLSKREVIFDRGQRVDTLRPGQGVGLAVAREITEQYEGKIVAGESMLGGARMEVIFGRQHSAPKDE

Variants of: B1
Assay: enrichment ratio after two sorts for PhoP signalling (ratio (wild type AVST 3.29)); higher = more functional
Conditions: with PhoP (E. coli)

**Q.** ECAR was tested. Which enrichment ratio did it give?
**A.** Its enrichment ratio is no more than 0.25.

**Q.** With GRPD as the variant, how does the enrichment ratio read?
**A.** The enrichment ratio was no more than 0.25.

**Q.** With WEDL as the variant, how does the enrichment ratio read?
**A.** The enrichment ratio was no more than 0.25.

**Q.** Which enrichment ratio does the source give for IWSD here?
**A.** The enrichment ratio was no more than 0.25.

**Q.** Which enrichment ratio does the source give for TDLM here?
**A.** The enrichment ratio was 10.2.

**Q.** Which enrichment ratio does the source give for INFP here?
**A.** Its enrichment ratio is no more than 0.25.

**Q.** YNRL was tested. Which enrichment ratio did it give?
**A.** The enrichment ratio was 1.06.

**Q.** For APTL, which enrichment ratio is on record?
**A.** Its enrichment ratio is no more than 0.25.

**Q.** Which enrichment ratio does the source give for DEAA here?
**A.** Its enrichment ratio is no more than 0.25.

**Q.** For ELHK, which enrichment ratio is on record?
**A.** Its enrichment ratio is no more than 0.25.

**Q.** Which enrichment ratio does the source give for KIMP here?
**A.** Its enrichment ratio is no more than 0.25.

**Q.** With RTAY as the variant, how does the enrichment ratio read?
**A.** Its enrichment ratio is no more than 0.25.

**Q.** With PLMW as the variant, how does the enrichment ratio read?
**A.** Its enrichment ratio is no more than 0.25.

**Q.** For DPGA, which enrichment ratio is on record?
**A.** The enrichment ratio was no more than 0.25.

**Q.** HSNF was tested. Which enrichment ratio did it give?
**A.** The enrichment ratio was no more than 0.25.

**Q.** Which enrichment ratio does the source give for YAQP here?
**A.** Its enrichment ratio is no more than 0.25.

**Q.** How did the enrichment ratio turn out when PMQF was run?
**A.** The enrichment ratio was no more than 0.25.

**Q.** For TIKN, which enrichment ratio is on record?
**A.** Its enrichment ratio is no more than 0.25.

**Q.** FRRY was tested. Which enrichment ratio did it give?
**A.** Its enrichment ratio is no more than 0.25.

**Q.** With APGD as the variant, how does the enrichment ratio read?
**A.** Its enrichment ratio is no more than 0.25.

**Q.** VGIK was tested. Which enrichment ratio did it give?
**A.** Its enrichment ratio is no more than 0.25.

**Q.** With IECD as the variant, how does the enrichment ratio read?
**A.** Its enrichment ratio is no more than 0.25.

**Q.** For YFKT, which enrichment ratio is on record?
**A.** The enrichment ratio was no more than 0.25.

**Q.** Which enrichment ratio does the source give for RKQE here?
**A.** The enrichment ratio was no more than 0.25.

**Q.** For HSTT, which enrichment ratio is on record?
**A.** The enrichment ratio was no more than 0.25.

**Q.** RRMT was tested. Which enrichment ratio did it give?
**A.** The enrichment ratio was no more than 0.25.

**Q.** With GGKC as the variant, how does the enrichment ratio read?
**A.** The enrichment ratio was no more than 0.25.

**Q.** For LISE, which enrichment ratio is on record?
**A.** Its enrichment ratio is no more than 0.25.

**Q.** Which enrichment ratio does the source give for WPQM here?
**A.** The enrichment ratio was no more than 0.25.

**Q.** Which enrichment ratio does the source give for FYTV here?
**A.** The enrichment ratio was 0.77.

**Q.** Which enrichment ratio does the source give for GCTF here?
**A.** The enrichment ratio was 1.14.

**Q.** How did the enrichment ratio turn out when WVRI was run?
**A.** Its enrichment ratio is no more than 0.25.

**Q.** For VNFT, which enrichment ratio is on record?
**A.** Its enrichment ratio is no more than 0.25.

**Q.** INFE was tested. Which enrichment ratio did it give?
**A.** Its enrichment ratio is no more than 0.25.

**Q.** For VNKT, which enrichment ratio is on record?
**A.** Its enrichment ratio is no more than 0.25.

**Q.** How did the enrichment ratio turn out when PHWL was run?
**A.** Its enrichment ratio is no more than 0.25.

**Q.** For RDQE, which enrichment ratio is on record?
**A.** The enrichment ratio was no more than 0.25.

**Q.** FYLN was tested. Which enrichment ratio did it give?
**A.** Its enrichment ratio is no more than 0.25.

**Q.** How did the enrichment ratio turn out when HPEG was run?
**A.** The enrichment ratio was no more than 0.25.

**Q.** With ECPG as the variant, how does the enrichment ratio read?
**A.** Its enrichment ratio is no more than 0.25.

**Q.** For PRRH, which enrichment ratio is on record?
**A.** The enrichment ratio was no more than 0.25.

**Q.** Which enrichment ratio does the source give for MSHG here?
**A.** The enrichment ratio was no more than 0.25.

**Q.** FSAY was tested. Which enrichment ratio did it give?
**A.** The enrichment ratio was no more than 0.25.

**Q.** WDPE was tested. Which enrichment ratio did it give?
**A.** The enrichment ratio was no more than 0.25.

**Q.** For WCSL, which enrichment ratio is on record?
**A.** Its enrichment ratio is no more than 0.25.

**Q.** For HQCH, which enrichment ratio is on record?
**A.** The enrichment ratio was no more than 0.25.

**Q.** Which enrichment ratio does the source give for ELMH here?
**A.** Its enrichment ratio is no more than 0.25.

**Q.** NVIP was tested. Which enrichment ratio did it give?
**A.** The enrichment ratio was no more than 0.25.

**Q.** For TTWN, which enrichment ratio is on record?
**A.** The enrichment ratio was 15.1.

**Q.** How did the enrichment ratio turn out when YLHY was run?
**A.** The enrichment ratio was no more than 0.25.

**Q.** For DPRH, which enrichment ratio is on record?
**A.** The enrichment ratio was no more than 0.25.

**Q.** How did the enrichment ratio turn out when FHYW was run?
**A.** Its enrichment ratio is no more than 0.25.

**Q.** LWDN was tested. Which enrichment ratio did it give?
**A.** Its enrichment ratio is no more than 0.25.

**Q.** Which enrichment ratio does the source give for ADIL here?
**A.** Its enrichment ratio is 8.79.

**Q.** Which enrichment ratio does the source give for PWVT here?
**A.** Its enrichment ratio is no more than 0.25.

**Q.** Which enrichment ratio does the source give for DFLI here?
**A.** The enrichment ratio was no more than 0.25.

**Q.** For AEHD, which enrichment ratio is on record?
**A.** Its enrichment ratio is no more than 0.25.

**Q.** HYHM was tested. Which enrichment ratio did it give?
**A.** The enrichment ratio was no more than 0.25.

**Q.** With YALT as the variant, how does the enrichment ratio read?
**A.** The enrichment ratio was 6.34.

**Q.** Which enrichment ratio does the source give for YDMV here?
**A.** The enrichment ratio was no more than 0.25.

**Q.** Which enrichment ratio does the source give for DRKG here?
**A.** Its enrichment ratio is no more than 0.25.

**Q.** How did the enrichment ratio turn out when LVWR was run?
**A.** The enrichment ratio was no more than 0.25.

**Q.** SLCL was tested. Which enrichment ratio did it give?
**A.** Its enrichment ratio is 11.2.

**Q.** For ATMD, which enrichment ratio is on record?
**A.** The enrichment ratio was 27.9.

**Q.** For YQGY, which enrichment ratio is on record?
**A.** The enrichment ratio was no more than 0.25.

**Q.** QNSI was tested. Which enrichment ratio did it give?
**A.** Its enrichment ratio is no more than 0.25.

**Q.** With YGCT as the variant, how does the enrichment ratio read?
**A.** Its enrichment ratio is no more than 0.25.

**Q.** For HCFP, which enrichment ratio is on record?
**A.** Its enrichment ratio is no more than 0.25.

**Q.** Which enrichment ratio does the source give for QCTM here?
**A.** The enrichment ratio was no more than 0.25.

**Q.** For PLVL, which enrichment ratio is on record?
**A.** The enrichment ratio was no more than 0.25.

**Q.** For SWSI, which enrichment ratio is on record?
**A.** Its enrichment ratio is no more than 0.25.

**Q.** For HHIK, which enrichment ratio is on record?
**A.** Its enrichment ratio is no more than 0.25.

**Q.** With RGTD as the variant, how does the enrichment ratio read?
**A.** The enrichment ratio was no more than 0.25.

**Q.** How did the enrichment ratio turn out when TWMW was run?
**A.** The enrichment ratio was no more than 0.25.

**Q.** RSWW was tested. Which enrichment ratio did it give?
**A.** Its enrichment ratio is no more than 0.25.

**Q.** VMKH was tested. Which enrichment ratio did it give?
**A.** Its enrichment ratio is no more than 0.25.

**Q.** How did the enrichment ratio turn out when SFTM was run?
**A.** The enrichment ratio was 5.17.

**Q.** With QTWD as the variant, how does the enrichment ratio read?
**A.** The enrichment ratio was 0.338.

**Q.** Which enrichment ratio does the source give for RMEM here?
**A.** Its enrichment ratio is no more than 0.25.

**Q.** For PHWV, which enrichment ratio is on record?
**A.** Its enrichment ratio is no more than 0.25.

**Q.** With MLND as the variant, how does the enrichment ratio read?
**A.** The enrichment ratio was no more than 0.25.

**Q.** How did the enrichment ratio turn out when GVSL was run?
**A.** Its enrichment ratio is 5.42.

**Q.** HTEP was tested. Which enrichment ratio did it give?
**A.** The enrichment ratio was no more than 0.25.

**Q.** With KYGV as the variant, how does the enrichment ratio read?
**A.** The enrichment ratio was no more than 0.25.
